# Laboratory results reported in ChEMBL document CHEMBL4888484, “Replenishing the malaria drug discovery pipeline: Screening and hit evaluation of the MMV Hit Generation Library 1 (HGL1) against asexual blood stage Plasmodium falciparum ,using a nano luciferase reporter read-out” (2022).
# Out of some 150,000 compounds screened, about 540 (0.36%) showed an effect of 50% or more. This is one part of the list.
# Tested on: Plasmodium falciparum
# Test: Primary screen in NF54 nanoGlo assay, in single point, at 2uM, 72h; a lower Z score goes with more inhibition
# Format: functional, Erythrocyte
# Details: timepoint 72 hour
Structure (SMILES),% Inhibition [%],Z score
COc1ccc(OCCNc2ccc(C(=O)NC(C)C)nn2)cc1,1,-0.23
Nc1ccc(S(=O)(=O)C(F)F)cc1,-6,0.53
C[C@]1(c2noc(C3CCOCC3)n2)CCCN(C(=O)CC2CCCC2)C1,-1,0.21
CC(C)(O)CC(=O)N(Cc1ccncc1)C1CC1,-12,1.24
N[C@@H]1CC[C@@H]1NC(=O)c1nc(N2CCCC2)nc2c1CCCC2,0,-0.03
Cc1csc(NC(=O)CCc2ccc(S(=O)(=O)N3CCCC3)cc2)n1,-11,1.43
COc1ccc(C(=O)N2CC[C@H](n3c(-c4ccc(OC)cc4)nc4cccnc43)C2)cc1,-12,1.82
O=c1c2c(cnn1CN1CCN(c3ccccc3)CC1)CCCC2,-21,2.62
CC(C)(C)OC(=O)N1CCC[C@@H]1CCNC(=O)CCc1ccsc1,2,-0.23
O=C(NC[C@H]1CCCCO1)c1coc(COc2ccc(F)cc2)n1,-13,1.22
COc1ccccc1CC(=O)N[C@@H](Cn1cncn1)C(C)C,9,-1.24
COCCN1C[C@]2(CCCN(C(=O)c3nc(C)c[nH]3)C2)CCC1=O,-16,1.48
COc1ccc(CCNC(=O)C[C@H]2C(=O)NCCN2C2CCCC2)cc1OC,-11,1.58
CC#CCCNC(=O)N1CCCC2CN(C(=O)OC(C)(C)C)CCC21 (stereo unspecified),-12,2.31
OCCn1nc(-c2ccncc2)nc1CN1CCN(c2ncccn2)CC1,0,-0.06
O=C(NC1CCCCCCC1)C1CCN(S(=O)(=O)c2ccc3c(c2)CCCN3C(=O)C2CCC2)CC1,-9,1.68
Cc1nc(NC(=O)c2scnc2C)n(C)n1,-4,0.34
O=C(CCc1cc2n(n1)CCNC2)N1CCC(Nc2ccccn2)CC1,-4,0.81
CN(Cc1csnn1)[C@H]1CS(=O)(=O)c2ccc(Cl)cc21,-17,1.88
Cc1cccc(OC2CCN(C(=O)c3nc4cccc(C)n4c3F)CC2)c1,-4,0.81
CCCn1ccnc1-c1c(-c2ccccc2)ncn1CCS(C)(=O)=O,-1,0.08
COC(=O)[C@H]1CN(c2nccc(OC)n2)C[C@@H](C)O1,5,-0.86
Cc1cnc(CN2CC3(CCC2=O)CCN(C(=O)Cc2ccccc2)CC3)cn1,-13,1.81
